Consider 111 molecules from PubChem BioAssay AID488969 (Vanderbilt High Throughput Screening Facility, 2010).

“And” between values parts separate entries of the source, which are not always exact repeats. Equal values may be shown once. Over roughly 110,000 compounds, “z-score” has its median near -0.1; the highest 2% begin near 2. This is one part of the list. The source made the active and inactive calls.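 How the source made its calls: active means z-score in the third read window above 3 or below -3; inactive means the rest.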

The experiment deals with Metabotropic glutamate receptor 8 (Rattus norvegicus) (UniProt P70579). Nature of the experiment: mGluR8 Gi/Go-coupled signaling modulation – cell-based, rat, thallium flux, HTS, primary screen (AID 488969). The note with it: HEK293 rat mGluR8, GIRK (G protein-gated inwardly rectifying potassium channel) thallium flux, FluoZin2; at 10 µM; stronger effect = higher value; submaximal glutamate (EC20) added with thallium.
Sequence of UniProt P70579 (P70579 whole entry, looked up): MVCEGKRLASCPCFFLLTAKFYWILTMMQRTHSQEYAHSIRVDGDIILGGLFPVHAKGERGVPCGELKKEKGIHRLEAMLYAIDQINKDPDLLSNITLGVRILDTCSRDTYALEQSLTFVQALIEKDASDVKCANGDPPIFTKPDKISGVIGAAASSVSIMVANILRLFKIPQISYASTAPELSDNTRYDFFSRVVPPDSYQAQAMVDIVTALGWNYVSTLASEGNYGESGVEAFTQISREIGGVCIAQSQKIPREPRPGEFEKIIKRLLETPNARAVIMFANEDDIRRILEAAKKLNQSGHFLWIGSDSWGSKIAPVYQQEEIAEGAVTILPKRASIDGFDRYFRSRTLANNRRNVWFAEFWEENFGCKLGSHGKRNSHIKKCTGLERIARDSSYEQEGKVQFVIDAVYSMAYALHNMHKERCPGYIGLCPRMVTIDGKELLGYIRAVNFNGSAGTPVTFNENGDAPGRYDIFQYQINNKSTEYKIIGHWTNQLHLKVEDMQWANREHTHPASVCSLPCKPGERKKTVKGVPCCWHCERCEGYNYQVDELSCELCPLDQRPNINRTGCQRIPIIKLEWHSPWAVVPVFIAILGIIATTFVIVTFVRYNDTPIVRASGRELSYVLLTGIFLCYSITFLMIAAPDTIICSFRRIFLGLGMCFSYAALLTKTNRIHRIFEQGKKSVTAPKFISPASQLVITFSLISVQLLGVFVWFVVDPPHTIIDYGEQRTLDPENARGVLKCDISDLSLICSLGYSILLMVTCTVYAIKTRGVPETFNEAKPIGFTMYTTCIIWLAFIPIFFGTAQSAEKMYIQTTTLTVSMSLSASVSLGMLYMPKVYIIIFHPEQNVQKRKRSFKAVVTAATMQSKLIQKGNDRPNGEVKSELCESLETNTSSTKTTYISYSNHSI
For `Cc1c(NS(=O)(=O)N2CCCCC2)c(=O)n(-c2ccccc2)n1C`, the z-score was -0.144.

As to `CCCCS(=O)(=O)N1CN(S(=O)(=O)CCCC)C2NC(=O)NC21` (stereo unspecified), the z-score is -0.232.

In turn, `CC1CCCC(NC(=O)COC(=O)Cc2ccsc2)C1C` (stereo unspecified) yielded a z-score of 0.259.

As to `Cc1oc2c(CN3CCOCC3)c(O)ccc2c(=O)c1-c1ccc(Br)cc1`, the z-score is -0.298.

On to `COc1ccc(NC(=S)N2CCC(C(=O)N3CCCCCC3)CC2)cc1`, for which the z-score worked out at 0.26.

On to `CNC(=O)C12CCC(C)(c3nc4cc(C)c(C)cc4nc31)C2(C)C` (stereo unspecified), for which the z-score is -0.217.

With `COc1ccccc1Nc1nnc(SCC(=O)N2CCCC2=O)s1`, the z-score was determined as 1.33.

`Cc1ccc(-c2nnn(CC(=O)N(Cc3ccco3)C(C(=O)NC(C)(C)C)c3cccs3)n2)o1` (stereo unspecified) showed a z-score of -0.677.

In turn, `O=C1c2ccccc2S(=O)(=O)N1CC1CC(c2ccccc2)=NO1` (stereo unspecified) returned a z-score of -0.385.

Molecule `COC(=O)c1sccc1NC(=O)/C=C/c1c(Cl)cccc1Cl` returned a z-score of -0.118.

Take `Cc1cc(=O)n2nc(N3CCCC(C(=O)N4CCN(C)CC4)C3)sc2n1` (stereo unspecified): the z-score amounted to 0.72.

`CCOC(=O)c1cnc(-n2nc(C)cc2C)nc1NCc1ccccc1` had a z-score of -0.648.

`CCCOc1ccc(N2C(=O)CC(NCCCN3CCC(C(N)=O)CC3)C2=O)cc1` (stereo unspecified) displayed a z-score of -0.136.

On to `O=C(CN(C(=O)CNC(=O)c1ccco1)c1ccc2c(c1)OCO2)NC1CCCCC1`, for which the z-score came to 0.676.

In turn, `COc1ccc(OC)c(NC(=O)c2ccc(S(=O)(=O)N3CCN(C)CC3)cc2)c1` yielded a z-score of -0.884.

Molecule `O=c1c2c(nc3nc[nH]n13)CCC2` registered a z-score of -0.196.

Molecule `Cc1onc(-c2ccccc2Cl)c1C(=O)N1CCc2ccccc21` had a z-score of 0.442.

Consider `CC1(C)SC(=S)N(Cc2ccc3c(c2)OCO3)C1N(O)C(=O)NC1CCCCC1` (stereo unspecified), for which the z-score is -0.445.

As to `CCN(CC)S(=O)(=O)c1ccc2c(c1)c(=O)c(C(=O)N1CCN(c3ccccc3)CC1)cn2C`, the z-score was -1.51.

`O=C(CN1CCC(C(=O)c2cccc(F)c2)CC1)NCc1cccs1` registered a z-score of -0.0194.

For the molecule `Cc1ccc(-c2cc(C(=O)NCc3ccc4c(c3)OCO4)no2)cc1`, the z-score is -0.211.

`Cc1cccc2sc(NC(=O)C3=NN(c4ccccc4)C(=O)CC3)nc12` showed a z-score of -0.371.

For `Cc1ccc(C(=O)NNC(=O)CSc2nnc(-c3ccncc3)n2-c2ccc(C)cc2)cc1`, the z-score was -0.528.

`O=C1CC(N2CCC(c3nc4ccccc4s3)CC2)C(=O)N1Cc1ccccc1` (stereo unspecified) showed a z-score of -0.423.

Turning to `CCOC(=O)c1sc(NC(=O)CSc2ncccn2)c(C#N)c1C`, the z-score was -0.32.

For the molecule `C=CCNS(=O)(=O)c1ccc(OC)c(C)c1`, the z-score is 0.193.

Molecule `Cc1ccc(Nc2ccccc2)cc1` had a z-score of -0.319.

`Cc1c(Cl)cccc1NC(=S)NC1CCN(Cc2ccccc2)CC1` came in with a z-score of -0.67.

Molecule `CCOc1ccc(OCC(O)CNC2CCN(Cc3ccccc3)CC2)cc1` (stereo unspecified) yielded a z-score of 0.38.

Take `COc1ccc(S(=O)(=O)NCCSCc2ccco2)cc1C`: the z-score was -0.162.

`O=C(CSCCO)Nc1cc(C(F)(F)F)ccc1Cl` yielded a z-score of 0.171.

Consider `O=C(O)/C=C/c1nc(-c2ccccc2)n2ccccc12`, for which the z-score is -0.293.

For the molecule `CCOC(=O)CN1C(=O)SC(CC(=O)Nc2nccs2)C1=O` (stereo unspecified), the z-score came to 0.137.

As to `CCC(=O)NC(Nc1ncc(C)s1)(C(=O)OC)C(F)(F)F` (stereo unspecified), the z-score was -0.503.

`CCOC(=O)c1c(NC(C)=O)sc2c(O)c(CN3CCN(CC)CC3)ccc12` came in with a z-score of 0.962.

As for `Cc1nn(C)c(C)c1S(=O)(=O)N1CCCC(C(=O)NCC2COc3ccccc3O2)C1` (stereo unspecified), the z-score turned out to be 0.153.

For the molecule `Cc1noc(C)c1C(=O)OCC(=O)/C=C1\N(C)c2ccccc2C1(C)C`, the z-score was -0.0096.

For the molecule `COc1ccc2c(c1)C(=O)N(c1ccc(C)cc1)C(=O)C2`, the z-score is -0.101.

The molecule `CCCCC(=O)Nc1ccc2c(c1)C(=O)NC2=O` displayed a z-score of -0.138.

`O=C(Nc1cc(C(F)(F)F)ccc1N1CCOCC1)c1cccc(F)c1` yielded a z-score of 0.104.

In turn, `CC(C)(CNC(=O)c1cc(=O)[nH]c2ccccc12)N1CCOCC1` had a z-score of 0.0537.

Take `S=C(Nc1ccc(Cl)cc1Cl)NC1CCCCC1`: the z-score was determined as 0.599.

Regarding `CCN(CC)CCCNC(=O)C1c2cc(OC)c(OC)cc2C(=O)N(C)C1c1cccs1` (stereo unspecified), the z-score turned out to be 0.0641.

Turning to `O=[N+]([O-])c1cccc(-c2ccc(/C=N/n3c(-c4ccccc4)n[nH]c3=S)o2)c1`, the z-score is 0.0532.

Regarding `Cc1cc2oc(=O)c3c(c2cc1OC(=O)c1ccco1)CCCC3`, the z-score was -0.17.

In turn, `CC(=O)c1ccc(NC(=O)/C(=C\c2ccccc2)NC(=O)/C=C/c2ccccc2)cc1` returned a z-score of -0.443.

As to `CCOC(=O)c1c(N)sc(C(=O)N2CCOCC2)c1C`, the z-score was 0.105.

Turning to `CCN(CC)c1ccc(SS(=O)(=O)O)cc1`, the z-score is 0.214 and -0.202.

In the case of `O=C1C2C(C(=O)N1Cc1ccco1)C1C=CC2C12CC2` (stereo unspecified), the z-score amounted to 0.0454.

In turn, `Cc1ccc(C)n1-n1c(C)nc2sc3c(c2c1=O)CCCCC3` came in with a z-score of 0.163.

The molecule `COc1cccc(C(=O)NN2c3ccccc3CCc3ccccc32)c1` registered a z-score of -1.14.

`Cc1ccccc1NC1=CC(=O)CC(C)(C)C1` had a z-score of -0.1.

The molecule `CCOC(=O)Cn1cc(C(=O)C2CC2)c2ccccc21` came in with a z-score of 0.886.

With `CCOc1ccc(C2CC(c3ccccc3C)n3nc(N)nc3N2)cc1` (stereo unspecified), the z-score was 0.35.

On to `COc1ccc(C(c2nnnn2CC2CCCO2)N2CCN(c3ccccc3)CC2)cc1` (stereo unspecified), for which the z-score stood at 0.09.

`CC(Sc1cccc2cccc(C(=O)O)c12)C(=O)O` (stereo unspecified) displayed a z-score of 0.548.

In the case of `CNc1nc(C)nc(-c2ccccc2O)n1`, the z-score was -0.243.

In turn, `Cc1ccc2nc(SCC(=O)Nc3ccc(F)c([N+](=O)[O-])c3)[nH]c2c1` came in with a z-score of -0.15.

In the case of `Cc1cc(C)cc(-n2nnc(C(=O)NCc3ccco3)c2N)c1`, the z-score was -1.04.

In the case of `Cc1ccc(NC(=O)/C(=C\c2cccnc2)NC(=O)c2ccco2)cc1`, the z-score was 0.0795.

`Cc1c(NC(=O)c2cc(-c3ccccc3)on2)c(=O)n(-c2ccccc2)n1C`: the z-score amounted to 0.102.

In turn, `CS(=O)(=O)N(CC(=O)N1CCOCC1)Cc1ccc(Cl)cc1` had a z-score of -0.225.

Molecule `O=C(Nc1ccc2c(c1)OCCO2)c1cnc2n(c1=O)CCS2` came in with a z-score of 0.165.

Regarding `COc1ccc(N2CCN(C(=O)c3cccc(Cn4cc(Cl)cn4)c3)CC2)cc1`, the z-score is -1.05.

`Cc1cc(C(=O)COC(=O)Cc2n[nH]c(=O)c3ccccc23)c(C)n1-c1cccc(C(F)(F)F)c1` displayed a z-score of -1.01.

`Cn1c(=O)cc(NCCc2ccccc2)[nH]c1=O` had a z-score of 0.914.

For the molecule `COc1ccc(NC(=O)CSc2nc3ccccc3c(=O)n2Cc2cccs2)c(OC)c1`, the z-score was 0.00897.

`O=[N+]([O-])c1ccc(-c2nc(NCc3ccccc3)c3ccccc3n2)cc1`: the z-score was 0.258.

Turning to `CCCCOC(=O)c1ccc(NC(=O)COC(=O)CSc2nc(C)cc(C)n2)cc1`, the z-score was -0.348.

Regarding `CCCn1c(N2CCOCC2)nc2c1c(=O)[nH]c(=O)n2C`, the z-score amounted to 0.167.

Take `O=C(Nc1cccc(C(F)(F)F)c1)C(Sc1ncnc2ccccc12)c1ccccc1` (stereo unspecified): the z-score is 0.212.

On to `CCOC(=O)c1cnn(-c2ccccc2)c1NC(=O)c1ccccc1C`, for which the z-score was -0.103.

`COc1ccc(/C(O)=C2/C(=O)C(=O)N(CC3CCCO3)C2c2cccc(O)c2)cc1` (stereo unspecified) came in with a z-score of -0.0622.

`CCCCOCP(=O)(CCCC)COCCCC`: the z-score is -0.549.

Consider `COc1cc(/C=N/NC(=O)CC2(C)OCCCO2)ccc1OCc1ccccc1`, for which the z-score is -0.0134.

On to `Cc1cc(SCCC(=O)O)nc2ccccc12`, for which the z-score amounted to 0.204.

The molecule `COc1ccc(Cc2nc(C(=O)Nc3ccc(OC)cc3)cs2)cc1` had a z-score of 0.0776.

`CC(=O)c1c(OC(=O)c2ccco2)c2ccccc2n1C` gave a z-score of 0.752.

As for `C=CCn1c(C)cc(C(=O)COc2ccc(S(=O)(=O)N3CCCC3)cc2[N+](=O)[O-])c1C`, the z-score was found to be 0.0585.

As for `COc1ccc(CSC(=N)N)cc1[N+](=O)[O-]`, the z-score was found to be 0.197.

`NC(=O)C(c1ccc(Cl)cc1)c1ncc(C(F)(F)F)cc1Cl` (stereo unspecified) had a z-score of -0.0293.

In turn, `COc1ccccc1Nc1ccc([N+](=O)[O-])cc1N` came in with a z-score of -0.303.

Take `CC(=O)Nc1ccc(N/C=C/C(=O)c2ccc(C)o2)cc1`: the z-score worked out at 0.0049.

`Cc1ccc(Nc2nc3c(c(=O)[nH]2)CCCC3)cc1` came in with a z-score of 1.39.

Turning to `COc1cc(/C=N/Nc2ncc(C(F)(F)F)cc2Cl)cc(OC)c1O`, the z-score is -0.521.

For `CCCN(CCC)C(=O)C[n+]1cccc(/C=N/O)c1`, the z-score was -0.0664.

The molecule `COC(=O)CSc1nnc(-c2ccccn2)n1Cc1ccco1` gave a z-score of 0.213.

As for `Cc1occc1-c1nnc(SCc2cc(=O)n3cc(Br)ccc3n2)n1C`, the z-score turned out to be 0.0968.

`CC(C)(C)C(=O)NC1CCN(S(=O)(=O)c2ccccc2F)CC1`: the z-score is -0.294.

For the molecule `CSCCC(C(=O)O)N1C(=O)c2ccc(C(=O)O)cc2C1=O` (stereo unspecified), the z-score came to 0.562.

For the molecule `CNS(=O)(=O)c1cccc(C(=O)NCC(c2cccs2)N(C)C)c1` (stereo unspecified), the z-score was 0.554.

Molecule `O=[N+]([O-])c1ccc(Sc2nnnn2-c2ccccc2)c(Cl)c1` displayed a z-score of 0.585.

Regarding `CCC(C(=O)NCCCc1ccccc1)c1ccccc1` (stereo unspecified), the z-score is -0.218.

For `C/C(=N\NC(=O)C1CC1)c1cccnc1`, the z-score is -0.241.

Consider `O=C(N/N=C/c1c(O)n(-c2ccc(Cl)cn2)c(=O)c2ccccc12)C1CC1`, for which the z-score is -0.139.

In the case of `O=C(Nc1ccc(-n2cnnn2)cc1)C1CCCN1C(=O)NC1CCCCC1` (stereo unspecified), the z-score is -0.018.

The molecule `CCOC(=O)C(NCc1ccccc1OC)(NC(=O)c1ccccc1)C(F)(F)F` (stereo unspecified) came in with a z-score of -0.123.

Molecule `Cc1cccc(C)c1NC(=O)CSc1nc(COc2ccccc2)nc2ccccc12` showed a z-score of 0.755.

For `COc1cc(CNc2nc(C)c([N+](=O)[O-])c(C)c2C#N)cc(OC)c1`, the z-score is -0.18.

The molecule `CCOc1ccc(N(Cc2cc3ccc(C)cc3[nH]c2=O)C(=O)COC)cc1` yielded a z-score of 1.24.

Regarding `CC(=O)c1cccc(NC(=O)c2oc(C)nc2C)c1`, the z-score came out at 0.000627.

Molecule `Cc1ccc(-c2cc(-c3ccc(Cl)cc3)c(C#N)c(N)n2)o1` displayed a z-score of 0.222.

With `CCOc1cc(/C=N/NC(N)=O)cc(Br)c1OCC(=O)Nc1ccccc1C`, the z-score was -0.261.

In turn, `CS(=O)(=O)N1CCN(c2ccccc2F)CC1` displayed a z-score of 0.0453.

The molecule `O=C(Nc1ccc(O)cc1)c1cc(S(=O)(=O)N2CCCC2)ccc1Cl` gave a z-score of 0.0382.

`CCOC(=O)N1CCN(CCC(=O)Nc2ccc(OC)cc2)CC1` had a z-score of -0.183.

For the molecule `CC(O)c1nc2ccccc2n1C1CCCCC1` (stereo unspecified), the z-score is active: 6.36.

`CSc1nnc(-c2cc(C)on2)n1-c1ccccc1`: the z-score was found to be 1.12.

In the case of `CCn1cc(C(=O)NCCCN2CC(C)CC(C)C2)c2cc(OC)c(OC)cc2c1=O` (stereo unspecified), the z-score was -0.607.

For `COc1ccccc1CC(NC(C)=O)C(=O)NC1CCN(C(=O)c2ccc([N+](=O)[O-])cc2)CC1` (stereo unspecified), the z-score is 0.0267.

`CCOC(=O)C(CC)n1cnc2c(nnn2-c2ccc(C)cc2)c1=O` (stereo unspecified) yielded a z-score of -0.636.
